From PubChem BioAssay AID1346428 (National Center for Advancing Translational Sciences (NCATS), 2018)
The whole screen tested about 48,000 compounds, of which about 1,200 (2.5%) were called active. About 2% were inconclusive and are not listed.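 Rule for the calls: active = activation of at least 60% and not above a set upper limit (about 1 call in 100 departs from these limits); inconclusive = activation of 40% to 60%, or above that upper limit; inactive = activation under 40%.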 The list shows a part of the results.

The compounds below were run against Probable G-protein coupled receptor 32 (Homo sapiens) (UniProt O75388) (assay: qHTS for Agonists of Human Resolvin D1 Receptor DRV1). Settings: CHO-K1 GPR32 beta-arrestin PathHunter luminescence, 90 min; at 76.9 µM; active compounds read high; zero percent set by DMSO-only wells.
In short: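 Engineered CHO-K1 line co-expressing GPR32-ProLink and EA-beta-arrestin. Compound treatment lasted 90 min at 37 °C. Luminescence was recorded after 1 h with substrate at ambient temperature, relative to DMSO basal wells.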
Note: 0% is about no effect.

UniProt O75388, sequence (O75388 whole entry, looked up): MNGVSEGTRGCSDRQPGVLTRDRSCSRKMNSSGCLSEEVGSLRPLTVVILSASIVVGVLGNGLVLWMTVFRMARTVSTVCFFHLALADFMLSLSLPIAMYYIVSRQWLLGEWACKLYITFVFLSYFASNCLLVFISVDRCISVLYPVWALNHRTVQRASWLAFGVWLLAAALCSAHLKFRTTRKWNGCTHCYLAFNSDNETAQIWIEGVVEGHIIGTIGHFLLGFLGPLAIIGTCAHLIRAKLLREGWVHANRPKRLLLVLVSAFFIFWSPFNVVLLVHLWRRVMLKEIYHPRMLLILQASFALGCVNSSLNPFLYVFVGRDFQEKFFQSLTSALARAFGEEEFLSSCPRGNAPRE

activation, inactive:
Cc1cccc(N(C)C(=O)Cc2c(C(=O)O)[nH]c3ccccc23)c1 6.06%
O=C(OCC1CCCO1)c1ccc2c(c1)N(Cc1ccccc1)C(=O)c1ccccc1S2(=O)=O (centres undefined) -7.07%
CCc1ccccc1NC(=O)CN1C(=O)CCSc2ccc(S(=O)(=O)N3CCCC3)cc21 -14.2%
CCN(CC)S(=O)(=O)c1ccc2c(c1)nc(CN(C)C(=O)Nc1ccc(C)c(F)c1)n2C -1.5%
CCOC(=O)C1CCCN(C(=O)Cn2ncc3c4ccccc4n(Cc4ccccc4)c3c2=O)C1 (centres undefined) -9.02%
COC(=O)c1ccc(CSc2nc3c([nH]c4ccccc43)c(=O)n2-c2cccc(Cl)c2)o1 -6.4%
CCc1ccccc1NC(=O)C(C)n1c(=O)cc(C)c2c(C)nn(-c3ccccc3)c21 (centres undefined) -17.3%
O=[N+]([O-])c1cncn1CCN1CCOCC1 -11.9%
COc1ccc(N2CCN(C(=O)COCc3cc(-c4ccc5c(c4)OCO5)on3)CC2)cc1 -24.5%
COc1ccccc1NC(=O)c1cc2c(C)nn(-c3ccccc3)c2s1 -5.06%
Cc1ccc(NC(=O)c2nc(S(C)(=O)=O)ncc2N(Cc2ccco2)Cc2cccs2)cc1C -18.5%
COc1ccc(NC(=O)c2sc3nc(C(F)(F)F)cc(C)c3c2N)cc1OC 3.52%
Cc1cc(C)cc(Oc2nc3ccccn3c(=O)c2/C=C(\C#N)c2nc3ccccc3s2)c1 -9.22%
O=C(NC1CCN(Cc2ccccc2)CC1)c1ccc(Cn2c(=O)c3ccccc3n(Cc3ccc(F)cc3)c2=O)cc1 -16.4%
CCn1nc(-c2ccccc2)c(-c2ccccc2)c(C(=O)Nc2ccc(NC(C)=O)cc2)c1=O -3.62%
Cn1c(=O)cc(SCC(=O)N2CCN(c3ccccc3F)CC2)c2ccc(Cl)cc21 7.63%
Cc1ccccc1OCCSc1nc2ccc(NC(=O)c3cccs3)cc2s1 8.52%
COCCCNC(=O)CSc1nc2cc3c(cc2c(=O)n1CCCC(=O)NCc1ccc2c(c1)OCO2)OCO3 -10.8%
COc1ccc(OC)c(NC(=O)Nc2c(C)n(C)n(-c3ccccc3)c2=O)c1 0.701%
Cc1ccc(Cn2ccnc2SCC(=O)Nc2nnc(C)s2)cc1 -13.1%
Cc1ccc(-c2csc(=Nc3ccccc3)n2Cc2ccc3c(c2)OCO3)cc1 32.6%
O=C(CN(c1ccc(Cl)c(C(F)(F)F)c1)S(=O)(=O)c1ccccc1)Nc1cccnc1 35.5%
CCc1ccccc1NC(=O)CSc1nnc(-c2ccccc2)c(-c2ccccc2)n1 -17.7%
COc1cc(OC)cc(-c2cc3nc(C)c(CCC(=O)Nc4ccccc4OC)c(C)n3n2)c1 -3.22%
COCCNC(=O)Cn1c(=O)c2cccn2c2ccc(F)cc21 -14.8%
Cc1ccccc1C(=O)Nc1c(C(=O)Nc2cccc(F)c2)oc2ccccc12 0.197%
CCc1nnc(NC(=O)c2nc(SC)ncc2Cl)s1 -1%
NC(=O)CSc1nc2c(oc3ccccc32)c(=O)n1Cc1ccccc1 -8.72%
CCSc1oc(-c2cccs2)nc1S(=O)(=O)c1ccc(Br)cc1 -18.3%
OC[C@]1(O)OC[C@@H](O)[C@H](O)[C@@H]1O -5.95%
C[C@@H]1CCC[C@H](C)N1CCCC(O)(c1ccccc1)c1ccccn1 (some centres undefined) -5.87%
CCOC(=O)c1c(-c2ccccc2)oc2ccc(N(C(C)=O)S(=O)(=O)c3ccccc3)cc12 -5.84%
O=C(NCc1ccc2c(c1)OCO2)c1ccc2c(c1)N(Cc1ccccc1F)C(=O)c1ccccc1S2=O (centres undefined) -26.5%
CCOc1ccc(Cn2nnc(C(=O)Nc3ccc(Cl)cc3)c2N)cc1 -0.209%
O=S(=O)(NCC(c1ccco1)N1CCN(c2ccccc2)CC1)c1ccccc1 (centres undefined) -33.8%
CCCN(C(=O)c1c(C)oc2ncnc(N3CCOCC3)c12)c1ccc(Cl)c(Cl)c1 -6.85%
Cc1cccn2c3c(c(=O)nc12)C(c1ccc(F)cc1)CC(=O)N3 (centres undefined) -6.19%
CCn1ccc2c(OCC(=O)Nc3ccc(C(C)=O)cc3)cccc2c1=O -6.7%
COc1ccccc1CNC(=O)c1cc2c(-c3ccc(Cl)cc3)nn(C)c2s1 -10.6%
CN(C1CCCCC1)S(=O)(=O)c1ccc2c(c1)c(=O)c(C(=O)NCc1ccc(F)cc1)cn2C -10.7%
COc1ccccc1CNC(=O)C1CCN(C(=O)c2sccc2-n2cccc2)CC1 -15.5%
COC(=O)c1cc2occc2n1CC(=O)Nc1ccc(C)cc1Cl -0.909%
CCOc1ccc(-c2nc(CSCC(=O)NCc3ccc(C)cc3)c(C)o2)cc1 -9.45%
COC(=O)c1cc(NC(=O)c2sc3ccccc3c2Cl)cc(C(=O)OC)c1 -3.8%
COc1ccc(CCNc2nc3cc(OC)c(OC)cc3c3nc(-c4ccccc4)nn23)cc1OC -0.774%
COc1ccc(-c2nn(-c3ccc(C)cc3)c3c2cnc2ccc(C)cc23)cc1OC -3.98%
Cc1ccc(C)c(-n2nnc(-c3nc(-c4ccccc4C)no3)c2C)c1 -5.13%
N[C@@H](CCC(=O)N[C@@H](CS)C(=O)NCC(=O)O)C(=O)O -56.9%
COc1cccc(NC(=O)c2cc3c(-c4ccc(Cl)cc4)nn(C)c3s2)c1 -5.94%
CC1=C(C(=O)O)N2C(=O)[C@@H](NC(=O)[C@H](N)C3=CCC=CC3)[C@H]2SC1 -29.3%
CCCN1CCN(CCCNC(=O)C(CC)n2nc(C)n3c(cc4occc43)c2=O)CC1 (centres undefined) -9.96%
Cc1coc2cc3oc(=O)c(CCC(=O)NCc4ccccc4Cl)c(C)c3cc12 5.02%
O=C(O)c1cccc(-n2cnc3cccnc32)c1 -2.2%
O=C(NCC(c1cccnc1)N1CCN(Cc2ccccc2)CC1)C(=O)Nc1cccc(Cl)c1 (centres undefined) -3.38%
CCC(C(=O)NC1CCCCC1)n1c(SCc2cccc(C)c2)nc2ccncc21 (centres undefined) -9.96%
Cn1c(C(=O)N2CCC(C(=O)NCCc3ccccc3)CC2)cc2sccc21 -7.55%
CCN(CC)CCNC(=O)c1cn(CC)c2ccc(S(=O)(=O)N(C)C3CCCCC3)cc2c1=O -7.48%
N#Cc1ccccc1CSc1nnc2ccc3ccccc3n12 -1.78%
COCc1c(Br)c(C)nc2sc3c(=O)n(-c4cccc(Br)c4)nnc3c12 -8.89%
Nc1ccc([N+](=O)[O-])cc1O -93.8%
CCN1C(=O)c2ccccc2S(=O)(=O)c2ccc(C(=O)NCc3ccc(OC)cc3)cc21 -25.4%
COc1cc(C(=O)NCCCCCC(=O)O)cc(OC)c1OC -24.2%
CC(NC(=O)c1ccco1)c1nc(-c2ccccc2)no1 (centres undefined) -29.2%
Cc1cc(=O)n(CC(=O)NC(C)c2ccccc2)c2c1c(C)nn2-c1cccc(F)c1 (centres undefined) -13.3%
Cc1ccc(C)c(N2CCN(S(=O)(=O)c3ccc(-c4coc(C)n4)cc3)CC2)c1 -0.886%
CCCCc1c(C)nc2c(-c3ccc(Cl)cc3)c(C)[nH]n2c1=O -27.4%
COc1cc(OC)cc(C(=O)Nc2ccc(-c3nc4cc(C(C)C)ccc4o3)cc2)c1 -11.6%
COc1ccc(C(=O)c2sc3nc(-c4ccc(C)cc4)cc(C(F)(F)F)c3c2N)cc1 -15.2%
COc1ccc(-n2cc(-c3ccc4c(c3)OCO4)n(CC(=O)Nc3cccc(C)c3C)c2=O)c(OC)c1 -7.27%
CCCCN(CCCNC(=O)c1cc(Nc2ccc(OC)cc2)nc2ccccc12)Cc1ccccc1 -17.4%
CCOC(=O)C(CC)n1nc(C)c2c(C)n(-c3ccc(C)cc3)nc2c1=O (centres undefined) -9.01%
O=S(=O)(Nc1ccc(F)c(Cl)c1)c1ccc(Br)s1 14.2%
Cc1ccc(S(=O)(=O)c2nc(S(=O)(=O)c3ccc(C)cc3)c(NCCCOC(C)C)s2)cc1 -19.5%
CCOC(=O)c1ccc(N2C(=O)c3n[nH]c(-c4cccs4)c3C2c2ccc(CC)cc2)cc1 (centres undefined) -17.2%
O=c1c(S(=O)(=O)c2ccccc2)cn(Cc2ccc(F)cc2)c2cc(N3CCOCC3)c(F)cc12 -28.5%
COc1cc2c3cc1Oc1cc(ccc1O)C[C@@H]1c4c(cc(OC)c(O)c4Oc4ccc(cc4)C[C@@H]3N(C)CC2)CC[N+]1(C)C 49.8%
COc1ccc(CCNC(=O)CCCn2c(=O)c3ccccc3n(Cc3ccccc3C#N)c2=O)cc1OC 19.7%
Cc1ccccc1-n1nc(CO)c(C(=O)NCC(c2ccccc2)c2ccccc2)n1 -26.1%
O=C(COCc1cc(-c2ccc(F)cc2)on1)Nc1cc(Cl)ccc1O 11.6%
CC(=O)C1=C(c2ccc(Cl)c(Cl)c2)N(C(C)=O)n2c(nnc2-c2ccccc2)S1 -15%
Nc1nonc1C(=O)NCCNCc1ccccc1F 13.7%
COc1cccc2cc(-c3nc(Nc4cccc(C)c4C)sc3C)c(=O)oc12 -34.6%
CC(=O)Nc1nonc1-c1nnc(SCC(=O)Nc2cc(Cl)ccc2C)n1C -14.7%
CC1(C)[C@H](C(=O)O)N2C(=O)C[C@H]2S1(=O)=O 9.79%
